Laboratory results taken from the supplement of paper PMC11876631.
± gives the standard deviation of the averaged measurements. Laboratory Escherichia coli strains with one amino-acid change in an essential protein, pooled on minimal glucose agar with carbenicillin or gentamicin at twice the control MIC (plus kanamycin and chloramphenicol for the plasmids), 48 h. Fold change of barcode share against drug-free plates; higher = less susceptible. Active = above 20 in both replicates (the paper's putatively resistant). '<' = one read or none on drug, '>' = one read or none on a drug-free plate. Shares are relative, so most strains fall below 1 when a few take over. Listed are strains with at least 15 reads on both drug-free plates, and hits; most hits rest on fewer reference reads. Replicate rank correlation about 0.5. Edits are read from barcodes.

Biological target: Escherichia coli (laboratory strain)
Assay: barcode share on antibiotic plates over drug-free plates; higher = less susceptible
Procedure: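 A pool of E. coli strains, each edited to carry one amino-acid change in an essential protein, was grown for 48 h on minimal glucose agar with or without antibiotic; strain barcodes were sequenced; mean of two replicates.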

[1] = antibiotic: carbenicillin, 2× MIC (3.1 µg/mL)
[2] = antibiotic: gentamicin, 2× MIC (MIC 0.45 µg/mL)

Protein	fold change of barcode share [1]	fold change of barcode share [2]
purD L270W (protein) MKVLVIGNGGREHALAWKAAQSPLVETVFVAPGNAGTALEPALQNVAIGVTDIPALLDFAQNEKIDLTIVGPEAPLVKGVVDTFRAAGLKIFGPTAGAAQLEGSKAFTKDFLARHKIPTAEYQNFTEVEPALAYLREKGAPIVIKADGLAAGKGVIVAMTLEEAEAAVHDMLAGNAFGDAGHRIVIEEFLDGEEASFIVMVDGEHVLPMATSQDHKRVGDKDTGPNTGGMGAYSPAPVVTDDVHQRTMERIIWPTVKGMAAEGNTYTGFWYAGLMIDKQGNPKVIEFNCRFGDPETQPIMLRMKSDLVELCLAACESKLDEKTSEWDERASLGVVMAAGGYPGDYRTGDVIHGLPLEEVAGGKVFHAGTKLADDEQVVTNGGRVLCVTALGHTVAEAQKRAYALMTDIHWDDCFCRKDIGWRAIEREQN	82.8 [active]	–
purD L270Q (protein) MKVLVIGNGGREHALAWKAAQSPLVETVFVAPGNAGTALEPALQNVAIGVTDIPALLDFAQNEKIDLTIVGPEAPLVKGVVDTFRAAGLKIFGPTAGAAQLEGSKAFTKDFLARHKIPTAEYQNFTEVEPALAYLREKGAPIVIKADGLAAGKGVIVAMTLEEAEAAVHDMLAGNAFGDAGHRIVIEEFLDGEEASFIVMVDGEHVLPMATSQDHKRVGDKDTGPNTGGMGAYSPAPVVTDDVHQRTMERIIWPTVKGMAAEGNTYTGFQYAGLMIDKQGNPKVIEFNCRFGDPETQPIMLRMKSDLVELCLAACESKLDEKTSEWDERASLGVVMAAGGYPGDYRTGDVIHGLPLEEVAGGKVFHAGTKLADDEQVVTNGGRVLCVTALGHTVAEAQKRAYALMTDIHWDDCFCRKDIGWRAIEREQN	104 [active]	–
purD L270D (protein) MKVLVIGNGGREHALAWKAAQSPLVETVFVAPGNAGTALEPALQNVAIGVTDIPALLDFAQNEKIDLTIVGPEAPLVKGVVDTFRAAGLKIFGPTAGAAQLEGSKAFTKDFLARHKIPTAEYQNFTEVEPALAYLREKGAPIVIKADGLAAGKGVIVAMTLEEAEAAVHDMLAGNAFGDAGHRIVIEEFLDGEEASFIVMVDGEHVLPMATSQDHKRVGDKDTGPNTGGMGAYSPAPVVTDDVHQRTMERIIWPTVKGMAAEGNTYTGFDYAGLMIDKQGNPKVIEFNCRFGDPETQPIMLRMKSDLVELCLAACESKLDEKTSEWDERASLGVVMAAGGYPGDYRTGDVIHGLPLEEVAGGKVFHAGTKLADDEQVVTNGGRVLCVTALGHTVAEAQKRAYALMTDIHWDDCFCRKDIGWRAIEREQN	> 121 [active]	–
purD L270P (protein) MKVLVIGNGGREHALAWKAAQSPLVETVFVAPGNAGTALEPALQNVAIGVTDIPALLDFAQNEKIDLTIVGPEAPLVKGVVDTFRAAGLKIFGPTAGAAQLEGSKAFTKDFLARHKIPTAEYQNFTEVEPALAYLREKGAPIVIKADGLAAGKGVIVAMTLEEAEAAVHDMLAGNAFGDAGHRIVIEEFLDGEEASFIVMVDGEHVLPMATSQDHKRVGDKDTGPNTGGMGAYSPAPVVTDDVHQRTMERIIWPTVKGMAAEGNTYTGFPYAGLMIDKQGNPKVIEFNCRFGDPETQPIMLRMKSDLVELCLAACESKLDEKTSEWDERASLGVVMAAGGYPGDYRTGDVIHGLPLEEVAGGKVFHAGTKLADDEQVVTNGGRVLCVTALGHTVAEAQKRAYALMTDIHWDDCFCRKDIGWRAIEREQN	90.2 [active]	–
purD V308A (protein) MKVLVIGNGGREHALAWKAAQSPLVETVFVAPGNAGTALEPALQNVAIGVTDIPALLDFAQNEKIDLTIVGPEAPLVKGVVDTFRAAGLKIFGPTAGAAQLEGSKAFTKDFLARHKIPTAEYQNFTEVEPALAYLREKGAPIVIKADGLAAGKGVIVAMTLEEAEAAVHDMLAGNAFGDAGHRIVIEEFLDGEEASFIVMVDGEHVLPMATSQDHKRVGDKDTGPNTGGMGAYSPAPVVTDDVHQRTMERIIWPTVKGMAAEGNTYTGFLYAGLMIDKQGNPKVIEFNCRFGDPETQPIMLRMKSDLAELCLAACESKLDEKTSEWDERASLGVVMAAGGYPGDYRTGDVIHGLPLEEVAGGKVFHAGTKLADDEQVVTNGGRVLCVTALGHTVAEAQKRAYALMTDIHWDDCFCRKDIGWRAIEREQN	0.608 ± 0.13	0.0064 ± 0.0047
purD V308W (protein) MKVLVIGNGGREHALAWKAAQSPLVETVFVAPGNAGTALEPALQNVAIGVTDIPALLDFAQNEKIDLTIVGPEAPLVKGVVDTFRAAGLKIFGPTAGAAQLEGSKAFTKDFLARHKIPTAEYQNFTEVEPALAYLREKGAPIVIKADGLAAGKGVIVAMTLEEAEAAVHDMLAGNAFGDAGHRIVIEEFLDGEEASFIVMVDGEHVLPMATSQDHKRVGDKDTGPNTGGMGAYSPAPVVTDDVHQRTMERIIWPTVKGMAAEGNTYTGFLYAGLMIDKQGNPKVIEFNCRFGDPETQPIMLRMKSDLWELCLAACESKLDEKTSEWDERASLGVVMAAGGYPGDYRTGDVIHGLPLEEVAGGKVFHAGTKLADDEQVVTNGGRVLCVTALGHTVAEAQKRAYALMTDIHWDDCFCRKDIGWRAIEREQN	36.5 [active]	–
purD V308Q (protein) MKVLVIGNGGREHALAWKAAQSPLVETVFVAPGNAGTALEPALQNVAIGVTDIPALLDFAQNEKIDLTIVGPEAPLVKGVVDTFRAAGLKIFGPTAGAAQLEGSKAFTKDFLARHKIPTAEYQNFTEVEPALAYLREKGAPIVIKADGLAAGKGVIVAMTLEEAEAAVHDMLAGNAFGDAGHRIVIEEFLDGEEASFIVMVDGEHVLPMATSQDHKRVGDKDTGPNTGGMGAYSPAPVVTDDVHQRTMERIIWPTVKGMAAEGNTYTGFLYAGLMIDKQGNPKVIEFNCRFGDPETQPIMLRMKSDLQELCLAACESKLDEKTSEWDERASLGVVMAAGGYPGDYRTGDVIHGLPLEEVAGGKVFHAGTKLADDEQVVTNGGRVLCVTALGHTVAEAQKRAYALMTDIHWDDCFCRKDIGWRAIEREQN	90.9 [active]	–
purD V308D (protein) MKVLVIGNGGREHALAWKAAQSPLVETVFVAPGNAGTALEPALQNVAIGVTDIPALLDFAQNEKIDLTIVGPEAPLVKGVVDTFRAAGLKIFGPTAGAAQLEGSKAFTKDFLARHKIPTAEYQNFTEVEPALAYLREKGAPIVIKADGLAAGKGVIVAMTLEEAEAAVHDMLAGNAFGDAGHRIVIEEFLDGEEASFIVMVDGEHVLPMATSQDHKRVGDKDTGPNTGGMGAYSPAPVVTDDVHQRTMERIIWPTVKGMAAEGNTYTGFLYAGLMIDKQGNPKVIEFNCRFGDPETQPIMLRMKSDLDELCLAACESKLDEKTSEWDERASLGVVMAAGGYPGDYRTGDVIHGLPLEEVAGGKVFHAGTKLADDEQVVTNGGRVLCVTALGHTVAEAQKRAYALMTDIHWDDCFCRKDIGWRAIEREQN	34.4 [active]	–
purD V308P (protein) MKVLVIGNGGREHALAWKAAQSPLVETVFVAPGNAGTALEPALQNVAIGVTDIPALLDFAQNEKIDLTIVGPEAPLVKGVVDTFRAAGLKIFGPTAGAAQLEGSKAFTKDFLARHKIPTAEYQNFTEVEPALAYLREKGAPIVIKADGLAAGKGVIVAMTLEEAEAAVHDMLAGNAFGDAGHRIVIEEFLDGEEASFIVMVDGEHVLPMATSQDHKRVGDKDTGPNTGGMGAYSPAPVVTDDVHQRTMERIIWPTVKGMAAEGNTYTGFLYAGLMIDKQGNPKVIEFNCRFGDPETQPIMLRMKSDLPELCLAACESKLDEKTSEWDERASLGVVMAAGGYPGDYRTGDVIHGLPLEEVAGGKVFHAGTKLADDEQVVTNGGRVLCVTALGHTVAEAQKRAYALMTDIHWDDCFCRKDIGWRAIEREQN	0.962 ± 0.25	0.00501 ± 0.0012
purD M200A (protein) MKVLVIGNGGREHALAWKAAQSPLVETVFVAPGNAGTALEPALQNVAIGVTDIPALLDFAQNEKIDLTIVGPEAPLVKGVVDTFRAAGLKIFGPTAGAAQLEGSKAFTKDFLARHKIPTAEYQNFTEVEPALAYLREKGAPIVIKADGLAAGKGVIVAMTLEEAEAAVHDMLAGNAFGDAGHRIVIEEFLDGEEASFIVAVDGEHVLPMATSQDHKRVGDKDTGPNTGGMGAYSPAPVVTDDVHQRTMERIIWPTVKGMAAEGNTYTGFLYAGLMIDKQGNPKVIEFNCRFGDPETQPIMLRMKSDLVELCLAACESKLDEKTSEWDERASLGVVMAAGGYPGDYRTGDVIHGLPLEEVAGGKVFHAGTKLADDEQVVTNGGRVLCVTALGHTVAEAQKRAYALMTDIHWDDCFCRKDIGWRAIEREQN	1.07 ± 0.21	0.0108 ± 0.0076
purD M200Q (protein) MKVLVIGNGGREHALAWKAAQSPLVETVFVAPGNAGTALEPALQNVAIGVTDIPALLDFAQNEKIDLTIVGPEAPLVKGVVDTFRAAGLKIFGPTAGAAQLEGSKAFTKDFLARHKIPTAEYQNFTEVEPALAYLREKGAPIVIKADGLAAGKGVIVAMTLEEAEAAVHDMLAGNAFGDAGHRIVIEEFLDGEEASFIVQVDGEHVLPMATSQDHKRVGDKDTGPNTGGMGAYSPAPVVTDDVHQRTMERIIWPTVKGMAAEGNTYTGFLYAGLMIDKQGNPKVIEFNCRFGDPETQPIMLRMKSDLVELCLAACESKLDEKTSEWDERASLGVVMAAGGYPGDYRTGDVIHGLPLEEVAGGKVFHAGTKLADDEQVVTNGGRVLCVTALGHTVAEAQKRAYALMTDIHWDDCFCRKDIGWRAIEREQN	0.758 ± 0.077	–
purD M200D (protein) MKVLVIGNGGREHALAWKAAQSPLVETVFVAPGNAGTALEPALQNVAIGVTDIPALLDFAQNEKIDLTIVGPEAPLVKGVVDTFRAAGLKIFGPTAGAAQLEGSKAFTKDFLARHKIPTAEYQNFTEVEPALAYLREKGAPIVIKADGLAAGKGVIVAMTLEEAEAAVHDMLAGNAFGDAGHRIVIEEFLDGEEASFIVDVDGEHVLPMATSQDHKRVGDKDTGPNTGGMGAYSPAPVVTDDVHQRTMERIIWPTVKGMAAEGNTYTGFLYAGLMIDKQGNPKVIEFNCRFGDPETQPIMLRMKSDLVELCLAACESKLDEKTSEWDERASLGVVMAAGGYPGDYRTGDVIHGLPLEEVAGGKVFHAGTKLADDEQVVTNGGRVLCVTALGHTVAEAQKRAYALMTDIHWDDCFCRKDIGWRAIEREQN	> 58 [active]	–
